Laboratory results: PubChem BioAssay AID686970 (National Center for Advancing Translational Sciences (NCATS), 2013)
Several values for one entry are separate records, joined by “and”; a condition that tells them apart may be missing. Equal values may be shown once. Screen size: about 360,000 compounds; about 6,000 (1.7%) were called active. The shares of active, inactive and inconclusive entries below differ from those in the screen. Calls come from the whole dose curve; as a rule, active = well fitted cell-killing curve with a large enough effect; inconclusive = small, poorly fitted or top-dose-only effect, or effect the other way; inactive = flat fitted curve, though single readings scatter. Potencies beside an inconclusive call are fits to weak or partial responses and may not hold up.
Potency is the fitted concentration of half-maximal effect; tags give direction and shape of the fitted curve.

Assay: qHTS for induction of synthetic lethality in tumor cells producing 2HG: qHTS for the HT-1080-NT fibrosarcoma cell line;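 note: NT is the 2HG producing partner of a matched IDH1 knockdown line; nearly all actives have a fitted effect of over 55% in size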;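 for activity, negative = less viability: 0% = DMSO-treated cells and -100% = media-only wells without cells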
Details: HT-1080-NT fibrosarcoma viability, CellTiter-Glo ATP luminescence, 48 h; activity, negative = less viability: at 46.1 µM (top of the series) unless noted
Outline: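 Toxicity toward the 2HG-producing NT line was scored as %Activity, normalised to DMSO and no-cell wells, from CellTiter-Glo luminescence after 48 hours' treatment.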
In the case of `CCCCc1c(O)n2c(nc3ccccc32)[nH]c1=O`, the activity, negative = less viability is reported as inconclusive: 35.1%.
For `Cn1ncc2c(NNC(=O)C3CCCCC3)ncnc21`, the “activity, negative = less viability” value was inactive: 8.42%.
With `C=CCNC(=O)c1ccc(Cn2c(=S)[nH]c3cc4c(cc3c2=O)OCO4)cc1` the Potency was inconclusive: 28.2 µM [cytotoxic, single point].
For `COC(=O)C1=CN(c2ccc(OC)cc2OC)C(N)=C(C#N)C1c1ccccc1F` (centres undefined), the Potency was active: 1.46 µM.
With `C/C(CC(=O)Nc1ccc2c(c1)OCO2)=N\NC(=O)C(c1ccccc1)c1ccccc1` the “activity, negative = less viability” value was inactive: 15.1%.
For `CC(C)n1cnc2c(Nc3cccc(Cl)c3)nc(N(CCO)CCCO)nc21`, the Potency was inconclusive: 29.1 µM [cytotoxic, single point].
For `O=C(NCCN1CCOCC1)c1cc(-c2cccs2)on1`, the activity, negative = less viability was inconclusive: -35.2% [cytotoxic].
In the case of `Cc1ccc2c(N)c(C(=O)c3ccccc3)sc2n1`, the Potency is reported as inconclusive: 16.4 µM [cytotoxic, partial curve].
In the case of `NC(=O)c1ccc[n+](Cc2ccccc2)c1`, the “activity, negative = less viability” value is reported as inactive: 7.4%.
In the case of `CCOC(=O)[C@@H]1[C@H]2COc3cc(OC)ccc3[C@H]2N2C(=O)N(c3ccc(C(F)(F)F)cc3)C(=O)[C@]12C`, the Potency is reported as inconclusive: 29.1 µM [cytotoxic, single point].
For `COc1cccc2sc(Nc3nc(-c4ccncc4)cs3)nc12`, the Potency was active: 2.31 µM.
For `Cc1nn(-c2ccc(F)cc2)c(Cl)c1/C=C1\C(=O)Nc2ccccc21`, the Potency was inconclusive: 2.59 µM [cytotoxic, full curve, poor fit].
With `O=c1[nH]c(=S)[nH]c2c1C(c1ccc(Cl)cc1)OC(C1CCCCC1)C2` (centres undefined) the Potency was inconclusive: 23.1 µM [cytotoxic, single point].
With `OC(c1cc(-c2cccc(Cl)c2)nc2ccccc12)C1CCCCN1` (centres undefined) the Potency was active: 4.11 µM.
For `CCc1cccc(OCCN2CCCC2)c1`, the Potency was inconclusive: 23.1 µM [rising, single point].
With `COc1ccc(Br)cc1/C=C/C(=O)c1ccc(NC(C)=O)cc1` the Potency was inconclusive: 13 µM [cytotoxic, partial curve].
With `CCN(CC)CCOc1c(Br)ccc2c1sc1nc3n(c(=O)c12)CCC3` the Potency was inconclusive: 23.1 µM [cytotoxic, single point].
For `O=C(c1ccc(CS(=O)Cc2cccc(Cl)c2)o1)N1CCN(C2CCCCC2)CC1` (centres undefined), the “activity, negative = less viability” value was inactive: -11.8%.
For `COc1cccc(-c2nn(-c3ccccc3)cc2CN(C)Cc2c(C)nc3ccccn23)c1`, the Potency was inconclusive: 29.1 µM [cytotoxic, single point].
In the case of `Oc1ccc(CNc2ccccc2)c2cccnc12`, the Potency is reported as active: 5.8 µM.
For `O=C(Nc1c2c(nn1-c1ccc(Cl)cc1)CS(=O)(=O)C2)c1ccccc1`, the “activity, negative = less viability” value was inactive: 3.42%.
With `COc1cccc(-c2nnc3n2N=C(C(C)(C)C)CS3)c1` the Potency was inconclusive: 23.1 µM [cytotoxic, single point].
With `O=C(Nc1nnc(-c2ccccc2)o1)C1CCCCC1` the “activity, negative = less viability” value was inactive: -8.83%.
With `CC1=C(C(=O)N(C(C)C)C(C)C)CC(CC(=O)NC2CCCCC2)C(=O)N1CCCN1CCCC1=O` (centres undefined) the Potency was inconclusive: 11.6 µM [rising, partial curve].
In the case of `CC(C)(C)NC(=O)C(c1ccncc1)n1c(=O)c(-c2cc3ccccc3[nH]2)nc2ccccc21` (centres undefined), the Potency is reported as inconclusive: 18.4 µM [cytotoxic, single point].
In the case of `COc1cc(CNc2ccc(N3CCCC3)cc2)cc(Cl)c1OC`, the Potency is reported as active: 16.4 µM.
In the case of `CCOC(=O)c1c(C)[nH]c(C(=O)OCc2ccc(C)cc2)c1C`, the “activity, negative = less viability” value is reported as inactive: -6.75%.
For `CN(C)CCNC(=O)/C(=C/c1ccc(-c2cccc([N+](=O)[O-])c2)o1)NC(=O)c1ccccc1`, the Potency was inconclusive: 18.4 µM [cytotoxic, single point].
In the case of `C/C(Cn1nnc([N+](=O)[O-])n1)=N\NC(=O)c1ccc(Cl)c(Cl)c1`, the Potency is reported as inconclusive: 25.1 µM [cytotoxic, single point].
For `NNc1nc2ccc(Cl)cc2s1`, the Potency was inconclusive: 20.6 µM [cytotoxic, single point].
In the case of `COc1cc(C(=O)c2ccc3c(c2)OCO3)cc(OC)c1OC`, the Potency is reported as inconclusive: 2.59 µM [cytotoxic, partial curve, poor fit].
In the case of `Cc1ccn2c(NC3CCCCC3)c(-c3cccc(SC4CCCCC4)c3)nc2c1`, the Potency is reported as inconclusive: 32.6 µM [cytotoxic, single point] and inconclusive: 29.1 µM [cytotoxic, single point].
In the case of `O=C(COc1ccc2c(c1)OCO2)Nc1cccc(F)c1`, the “activity, negative = less viability” value is reported as inactive: -5.21%.
In the case of `Cc1ccc(OCC(=O)OCC(=O)c2c(N)n(C)c(=O)n(C)c2=O)cc1C`, the “activity, negative = less viability” value is reported as inactive: 13.6%.
With `COc1ccc(NC2CC(=O)N(c3ccc(C(=O)O)cc3)C2=O)cc1` (centres undefined) the Potency was inconclusive: 8.2 µM [cytotoxic, partial curve, poor fit].
In the case of `CCc1nc2c(OCCC3CCCCC3)cccn2c1N(C)C(=O)c1ccccc1F`, the Potency is reported as inconclusive: 29.1 µM [cytotoxic, single point].
With `CCCCN(CC)Cc1ccc(CNC(=O)Nc2ccc(F)cc2)o1` the Potency was active: 10 µM.
With `COCCn1c(SCc2ccccc2F)nc2ccccc2c1=O` the “activity, negative = less viability” value was inactive: -2.35%.
In the case of `CCCn1c(SCC(=O)c2ccc3c(c2)NC(=O)CO3)nc2ccccc21`, the Potency is reported as inconclusive: 29.1 µM [cytotoxic, single point].
In the case of `CC1(C)CC(=O)C2=C(C1)Nc1ccccc1NC2c1cc(Cl)ccc1O` (centres undefined), the “activity, negative = less viability” value is reported as inactive: -23.9%.
For `COc1cc(OC)cc(-c2c(-c3cccs3)c3cc(-c4ccn[nH]4)ccc3n2C)c1`, the Potency was inconclusive: 29.1 µM [cytotoxic, single point].
With `O=C(NCCC1CCCCN1S(=O)(=O)c1ccc(F)cc1)C(=O)NCc1ccncc1` (centres undefined) the “activity, negative = less viability” value was inactive: 11.6%.
For `CCSc1nccc(-c2nn(-c3ccc(C)cc3)ccc2=O)n1`, the Potency was active: 10.3 µM.
In the case of `CC1CCc2nc(NC(=O)CN3CCN(Cc4ccc5c(c4)OCO5)CC3)sc2C1` (centres undefined), the Potency is reported as inconclusive: 23.1 µM [cytotoxic, single point].
In the case of `COc1ccc(-c2cc(C(=O)N/N=C/c3cccnc3)c3ccccc3n2)cc1`, the activity, negative = less viability is reported as inconclusive: -34% [cytotoxic].
In the case of `Cc1cc(=O)oc2cc(OCC(=O)N3CCN(c4ccccc4)CC3)ccc12`, the activity, negative = less viability is reported as inactive: 0.157% [at 9.24 µM].
In the case of `Nc1nc(Nc2cccc(C(F)(F)F)c2)nc(C(F)(F)F)n1`, the Potency is reported as inconclusive: 29.1 µM [cytotoxic, single point].
In the case of `Cc1ccc2nc(C)c3c(c2c1)N(c1ccccc1)CC3`, the Potency is reported as inconclusive: 9.2 µM [cytotoxic, partial curve].
For `CCOC(=O)C1=C(C)N(C)C(C)=C(C(=O)OCC)C1c1ccc(Cl)cc1`, the Potency was inconclusive: 29.1 µM [cytotoxic, partial curve].
With `CCc1ccc(Nc2n[n+](-c3ccccc3)c(-c3ccc(OC)c(Br)c3)s2)cc1` the “activity, negative = less viability” value was inactive: -22.5%.
In the case of `COc1ccc([C@H]2CC(=O)C=C(c3ccc(OC)cc3OC)C2)cc1`, the Potency is reported as active: 2.31 µM.
In the case of `Cc1ccc(C(CNC(=O)Nc2ccc(Cl)cc2)N2CCN(C)CC2)cc1` (centres undefined), the Potency is reported as inconclusive: 16.4 µM [cytotoxic, single point].
For `Cc1ccc(-c2csc3ncnc(Nc4ccc(N5CCOCC5)cc4)c23)cc1`, the Potency was inconclusive: 18.4 µM [cytotoxic, single point].
With `CCc1ccc(NS(=O)(=O)c2cc(OC)ccc2OC)cc1` the Potency was inconclusive: 22.4 µM [cytotoxic, single point].
For `CCOc1nc(-c2ccccc2)c2cc(Br)ccc2n1`, the “activity, negative = less viability” value was inactive: 0.775%.
With `COc1ccc(CNCCC(c2ccc(OC(C)C)cc2)C(C)C)cc1OC` (centres undefined) the Potency was inconclusive: 31.6 µM [cytotoxic, single point].
In the case of `O=C(Nc1ccc2c(c1)CN(C(=O)Nc1ccc(F)cc1)CC2)c1ccccn1`, the “activity, negative = less viability” value is reported as inactive: -17.9%.
With `O=C(O)CCCC(=O)Nc1ccc2c(c1)oc1ccccc12` the “activity, negative = less viability” value was inactive: 5.32%.
In the case of `CCN(CC(=O)Nc1cccc(C(C)=O)c1)S(=O)(=O)c1ccccc1`, the Potency is reported as inconclusive: 23.1 µM [rising, single point].
In the case of `O=S(=O)(c1ccc(Cl)cc1)N1CCC2(CC1)CO2`, the “activity, negative = less viability” value is reported as inactive: 2.28%.
For `c1ccc(NCCC2OCC3(CO2)COC(CCNc2ccccc2)OC3)cc1` (centres undefined), the “activity, negative = less viability” value was inactive: 2.46%.
With `CCC(O)C1CCN(Cc2cn(-c3ccc(OC)cc3)nc2-c2cccc(F)c2)CC1` (centres undefined) the Potency was inconclusive: 29.1 µM [cytotoxic, single point].
For `COc1cccc(Oc2cn[nH]c2-c2ccc(OC)cc2O)c1`, the Potency was inconclusive: 20.6 µM [cytotoxic, single point].
In the case of `COc1ccc([C@H]2CC(=O)C=C(c3cc(F)ccc3OC)C2)cc1`, the Potency is reported as inconclusive: 29.1 µM [cytotoxic, single point].
With `CCNS(=O)(=O)c1ccc(OCCNS(C)(=O)=O)cc1` the “activity, negative = less viability” value was inactive: 4.25%.
For `CCOc1cc(CNCCSc2nnnn2C)cc(Br)c1OCc1ccccc1F`, the Potency was inconclusive: 20 µM [cytotoxic, single point].
With `CCOC(=O)c1[nH]c2cc(OC)c(OC)cc2c1NC(=O)c1nonc1C` the Potency was inconclusive: 29.1 µM [cytotoxic, single point].
For `CCCC(=O)Nc1cc(C)c2c(=O)oc3ccccc3c2n1`, the “activity, negative = less viability” value was inactive: 20.4%.
For `O=C(Nc1ccc2nc3n(c(=O)c2c1)CCCCC3)c1c(F)ccc([N+](=O)[O-])c1F`, the Potency was active: 9.2 µM.
In the case of `O=c1c2cc(Cl)ccc2[nH]c(=S)n1Cc1ccco1`, the Potency is reported as active: 7.94 µM.
For `COc1ccc(S(=O)(=O)N2CCC(C(=O)NCCc3ccccc3)CC2)cc1`, the “activity, negative = less viability” value was inactive: 19.6%.
In the case of `COc1ccc2nc(NC(=O)c3cccs3)sc2c1`, the Potency is reported as inconclusive: 14.6 µM [cytotoxic, single point].
For `COc1ccc(NC2=CC(c3cccc(OC)c3)N(c3ccc(OC)cc3)C2=O)cc1` (centres undefined), the “activity, negative = less viability” value was inactive: -8.82%.
For `CC(C)(C)NCC(O)COc1cccc2c1CC(O)C(O)C2` (centres undefined), the Potency was inconclusive: 5.17 µM [rising, full curve].
